# This is one part of the list.
# Assays:
# Assay in all cases: glycan array binding signal (z-score within array); higher = stronger binding
# Conditions in all cases: glycan notation: IUPAC condensed, linker removed
# [1] = molecular target: Gal(b1-4)GlcNAc(b1-3)Gal(b1-4)GlcNAc(b1-3)Gal(b1-4)GlcNAc(b1-3)Gal(b1-4)GlcNAc(b1-3)Gal(b1-4)GlcNAc(b1-2)Man(a1-3)[Gal(b1-4)GlcNAc(b1-3)Gal(b1-4)GlcNAc(b1-3)Gal(b1-4)GlcNAc(b1-3)Gal(b1-4)GlcNAc(b1-3)Gal(b1-4)GlcNAc(b1-2)Man(a1-6)]Man(b1-4)GlcNAc(b1-4)[Fuc(a1-6)]GlcNAc
# Method in brief: (§1)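 Columns mapping to the same glycan were averaged after glycan names were converted to IUPAC-condensed notation. The data come from 3228 arrays in the Consortium for Functional Glycomics database, limited to those with an available protein sequence. Binding is reported as a within-array Z-score averaged across arrays of one protein sequence and across linkers.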
# [2] = molecular target: Gal(b1-4)GlcNAc(b1-3)Gal(b1-4)GlcNAc(b1-3)Gal(b1-4)GlcNAc(b1-3)Gal(b1-4)GlcNAc(b1-3)Gal(b1-4)GlcNAc(b1-2)[Gal(b1-4)GlcNAc(b1-3)Gal(b1-4)GlcNAc(b1-3)Gal(b1-4)GlcNAc(b1-3)Gal(b1-4)GlcNAc(b1-3)Gal(b1-4)GlcNAc(b1-6)]Man(a1-6)[Gal(b1-4)GlcNAc(b1-3)Gal(b1-4)GlcNAc(b1-3)Gal(b1-4)GlcNAc(b1-3)Gal(b1-4)GlcNAc(b1-3)Gal(b1-4)GlcNAc(b1-2)Man(a1-3)]Man(b1-4)GlcNAc(b1-4)[Fuc(a1-6)]GlcNAc
# Method in brief: as §1
# [3] = molecular target: Gal(b1-4)GlcNAc(b1-3)Gal(b1-4)GlcNAc(b1-3)Gal(b1-4)GlcNAc(b1-3)Gal(b1-4)GlcNAc(b1-3)Gal(b1-4)GlcNAc(b1-3)Gal(b1-4)GlcNAc(b1-2)Man(a1-3)[Gal(b1-4)GlcNAc(b1-3)Gal(b1-4)GlcNAc(b1-3)Gal(b1-4)GlcNAc(b1-3)Gal(b1-4)GlcNAc(b1-3)Gal(b1-4)GlcNAc(b1-3)Gal(b1-4)GlcNAc(b1-2)Man(a1-6)]Man(b1-4)GlcNAc(b1-4)GlcNAc
# Method in brief: as §1
# [4] = molecular target: Gal(b1-4)GlcNAc(b1-3)Gal(b1-4)GlcNAc(b1-3)GalNAc
# Method in brief: as §1
# [5] = molecular target: Gal(b1-4)GlcNAc(b1-3)Gal(b1-4)GlcNAc(b1-3)[Gal(b1-4)GlcNAc(b1-3)Gal(b1-4)GlcNAc(b1-6)]GalNAc
# Method in brief: as §1
# [6] = molecular target: Gal(b1-4)GlcNAc(b1-3)Gal(b1-4)GlcNAc(b1-6)[Gal(b1-3)]GalNAc
# Method in brief: as §1
# [7] = molecular target: Gal(b1-4)GlcNAc(b1-3)Gal(b1-4)[Fuc(a1-3)]GlcNAc(b1-3)Gal(b1-4)[Fuc(a1-3)]GlcNAc
# Method in brief: as §1
# [8] = molecular target: Gal(b1-4)GlcNAc(b1-3)GalNAc
# Method in brief: as §1
# [9] = molecular target: Gal(b1-4)GlcNAc(b1-3)[Fuc(a1-3)GlcNAc(b1-6)]Gal(b1-4)Glc
# Method in brief: as §1
# [10] = molecular target: Gal(b1-4)GlcNAc(b1-3)[Gal(b1-4)GlcNAc(b1-6)]Gal(b1-4)GlcNAc
# Method in brief: as §1
# [11] = molecular target: Gal(b1-4)GlcNAc(b1-3)[Gal(b1-4)GlcNAc(b1-6)]GalNAc
# Method in brief: as §1
# [12] = molecular target: Gal(b1-4)GlcNAc(b1-3)[GlcNAc(b1-6)]Gal(b1-4)GlcNAc
# Method in brief: as §1
# [13] = molecular target: Gal(b1-4)GlcNAc(b1-6)Gal(b1-4)GlcNAc
# Method in brief: as §1
# [14] = molecular target: Gal(b1-4)GlcNAc(b1-6)Gal(b1-4)GlcNAc(b1-6)GalNAc
# Method in brief: as §1
# [15] = molecular target: Gal(b1-4)GlcNAc(b1-6)GalNAc
# Method in brief: as §1
# [16] = molecular target: Gal(b1-4)GlcNAc(b1-6)[Gal(b1-3)]GalNAc
# Method in brief: as §1
# [17] = molecular target: Gal(b1-4)GlcNAc(b1-6)[Gal(b1-4)GlcNAc(b1-3)]GalNAc
# Method in brief: as §1
# Gal(b1-4)GlcNAc6P = molecular target: Gal(b1-4)GlcNAc6P
# Method in brief: as §1
# Gal(b1-6)Gal = molecular target: Gal(b1-6)Gal
# Method in brief: as §1
# Gal3S(b1-3)GalNAc = molecular target: Gal3S(b1-3)GalNAc
# Method in brief: as §1
# Gal3S(b1-3)GlcNAc = molecular target: Gal3S(b1-3)GlcNAc
# Method in brief: as §1
# [18] = molecular target: Gal3S(b1-3)[Fuc(a1-4)]GlcNAc
# Method in brief: as §1
# Gal3S(b1-4)Glc = molecular target: Gal3S(b1-4)Glc
# Method in brief: as §1
# Gal3S(b1-4)Glc6S = molecular target: Gal3S(b1-4)Glc6S
# Method in brief: as §1
# Gal3S(b1-4)GlcNAc = molecular target: Gal3S(b1-4)GlcNAc
# Method in brief: as §1
# Gal3S(b1-4)GlcNAc6S = molecular target: Gal3S(b1-4)GlcNAc6S
# Method in brief: as §1
# [19] = molecular target: Gal3S(b1-4)[Fuc(a1-3)]Glc6S
# Method in brief: as §1
# [20] = molecular target: Gal3S(b1-4)[Fuc(a1-3)]GlcNAc
# Method in brief: as §1
# [21] = molecular target: Gal3S(b1-4)[Fuc(a1-3)]GlcNAc6S
# Method in brief: as §1
# Gal3S4S(b1-4)GlcNAc = molecular target: Gal3S4S(b1-4)GlcNAc
# Method in brief: as §1
# Gal3S6S(b1-4)GlcNAc = molecular target: Gal3S6S(b1-4)GlcNAc
# Method in brief: as §1
# Gal3S6S(b1-4)GlcNAc6S = molecular target: Gal3S6S(b1-4)GlcNAc6S
# Method in brief: as §1
# Gal4S(b1-4)GlcNAc = molecular target: Gal4S(b1-4)GlcNAc
# Method in brief: as §1
# Gal4S6S(b1-4)GlcNAc = molecular target: Gal4S6S(b1-4)GlcNAc
# Method in brief: as §1
# Gal6P(b1-4)GlcNAc = molecular target: Gal6P(b1-4)GlcNAc
# Method in brief: as §1
# Gal6S(b1-3)GlcNAc = molecular target: Gal6S(b1-3)GlcNAc
# Method in brief: as §1
# Gal6S(b1-3)GlcNAc6S = molecular target: Gal6S(b1-3)GlcNAc6S
# Method in brief: as §1
# Gal6S(b1-4)Glc = molecular target: Gal6S(b1-4)Glc
# Method in brief: as §1
# Gal6S(b1-4)Glc6S = molecular target: Gal6S(b1-4)Glc6S
# Method in brief: as §1
# Gal6S(b1-4)GlcNAc = molecular target: Gal6S(b1-4)GlcNAc
# Method in brief: as §1
# Gal6S(b1-4)GlcNAc6S = molecular target: Gal6S(b1-4)GlcNAc6S
# Method in brief: as §1
# GalNAc(a1-3)Gal = molecular target: GalNAc(a1-3)Gal
# Method in brief: as §1
# GalNAc(a1-3)GalNAc = molecular target: GalNAc(a1-3)GalNAc
# Method in brief: as §1
# [22] = molecular target: GalNAc(a1-3)GalNAc(a1-3)Gal(a1-4)Gal(b1-4)GlcNAc
# Method in brief: as §1
# [23] = molecular target: GalNAc(a1-3)GalNAc(b1-3)Gal(a1-4)Gal(b1-4)Glc
# Method in brief: as §1
binder,measurement,setting,value
AMA (Arum maculatun) (protein) MAKLLLLLLLPAIVGLAVPRSAAAVGSNYMLSGETLNTDGRLTNGELTLIMQVDCNLVLYHGGWQSNTANNGRDCKLTLTDFGELVIKSGTGSTVWSSGSKQSMKGNYAAVVHPEGRLVIYGPSVFKINPSGAGLNGLPLRNIPLTNNMLFSGQVLYGDGTLSARNHKLVMQGDCNMVLYGGKYGWQSNTHGNGKYCFAMLTHKGELVIRDDDFKSVWSSKSSSKQGDYVFILQDDSLAIIYGPAVFSTGSKKMISMVTN,glycan array binding signal (z-score),[1],0.261
same,glycan array binding signal (z-score),[2],-0.201
same,glycan array binding signal (z-score),[3],-0.197
same,glycan array binding signal (z-score),[4],-0.149
same,glycan array binding signal (z-score),[5],-0.122
same,glycan array binding signal (z-score),[6],-0.134
same,glycan array binding signal (z-score),[7],-0.209
same,glycan array binding signal (z-score),[8],-0.21
same,glycan array binding signal (z-score),[9],-0.206
same,glycan array binding signal (z-score),[10],-0.213
same,glycan array binding signal (z-score),[11],-0.242
same,glycan array binding signal (z-score),[12],-0.227
same,glycan array binding signal (z-score),[13],-0.214
same,glycan array binding signal (z-score),[14],-0.236
same,glycan array binding signal (z-score),[15],-0.209
same,glycan array binding signal (z-score),[16],-0.212
same,glycan array binding signal (z-score),[17],-0.208
same,glycan array binding signal (z-score),Gal(b1-4)GlcNAc6P,-0.214
same,glycan array binding signal (z-score),Gal(b1-6)Gal,-0.208
same,glycan array binding signal (z-score),Gal3S(b1-3)GalNAc,-0.207
same,glycan array binding signal (z-score),Gal3S(b1-3)GlcNAc,-0.209
same,glycan array binding signal (z-score),[18],-0.213
same,glycan array binding signal (z-score),Gal3S(b1-4)Glc,-0.211
same,glycan array binding signal (z-score),Gal3S(b1-4)Glc6S,-0.206
same,glycan array binding signal (z-score),Gal3S(b1-4)GlcNAc,-0.212
same,glycan array binding signal (z-score),Gal3S(b1-4)GlcNAc6S,-0.214
same,glycan array binding signal (z-score),[19],-0.176
same,glycan array binding signal (z-score),[20],-0.203
same,glycan array binding signal (z-score),[21],-0.21
same,glycan array binding signal (z-score),Gal3S4S(b1-4)GlcNAc,-0.21
same,glycan array binding signal (z-score),Gal3S6S(b1-4)GlcNAc,-0.213
same,glycan array binding signal (z-score),Gal3S6S(b1-4)GlcNAc6S,-0.216
same,glycan array binding signal (z-score),Gal4S(b1-4)GlcNAc,-0.214
same,glycan array binding signal (z-score),Gal4S6S(b1-4)GlcNAc,-0.219
same,glycan array binding signal (z-score),Gal6P(b1-4)GlcNAc,-0.231
same,glycan array binding signal (z-score),Gal6S(b1-3)GlcNAc,-0.217
same,glycan array binding signal (z-score),Gal6S(b1-3)GlcNAc6S,-0.216
same,glycan array binding signal (z-score),Gal6S(b1-4)Glc,-0.215
same,glycan array binding signal (z-score),Gal6S(b1-4)Glc6S,-0.217
same,glycan array binding signal (z-score),Gal6S(b1-4)GlcNAc,-0.215
same,glycan array binding signal (z-score),Gal6S(b1-4)GlcNAc6S,-0.212
same,glycan array binding signal (z-score),GalNAc(a1-3)Gal,-0.103
same,glycan array binding signal (z-score),GalNAc(a1-3)GalNAc,-0.209
same,glycan array binding signal (z-score),[22],-0.225
same,glycan array binding signal (z-score),[23],-0.203

# Reference: the supplement of paper PMC8728848
